Measurements published in the supplement of paper PMC5919970.
Counter-ions that a name gives are not always drawn. Over roughly 2,000 compounds, “fractional viability relative to vehicle” has its median near 0.92; the lowest 2% begin near 0.11. This is one part of the list.

System: TYKNU
Test: fractional viability relative to vehicle; TYKNU is a high-grade serous ovarian cancer line; higher = less growth inhibition
Details: 72 h, genotype: OPA1 knockout (sgOPA1 #2)
Summary of the method: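 Drug treatment lasted 72 h, with cells grown at 37 °C in 5% CO2 in RPMI 1640 supplemented with 10% FBS. Beforehand, TYKNU control cells or their lentiCRISPRv2 knockout derivatives had been seeded at 500 cells per well into drug-stamped 384-well plates carrying a ~2100-compound library at 2 or 10 μM, in duplicate. Viability came from Cell Titer Glo luminescence, with averaged duplicate treatment wells normalised to duplicate control wells in the same plate position.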

CC1CNc2c(cccc2S(=O)(=O)N[C@@H](CCCNC(=N)N)C(=O)N2CC[C@@H](C)C[C@@H]2C(=O)O)C1 (stereo not given in full) [Argatroban]
fractional viability (2uM): 1.07
fractional viability (10uM): 1.2

Fc1ccc(Cl)cc1-c1nc(Nc2ccncc2)c2nccnc2n1
fractional viability (2uM): 1.31
fractional viability (10uM): 1.21

CO[C@H]1C[C@@H]2CC[C@@H](C)[C@@](O)(O2)C(=O)C(=O)N2CCCC[C@H]2C(=O)O[C@H]([C@H](C)C[C@@H]2CC[C@@H](OCCO)[C@H](OC)C2)CC(=O)[C@H](C)/C=C(\C)[C@@H](O)[C@@H](OC)C(=O)[C@H](C)C[C@H](C)/C=C/C=C/C=C/1C [Everolimus (RAD001)]
fractional viability (2uM): 0.862
fractional viability (10uM): 0.662

O=C(/C=C/c1ccccc1)NC(NC(=S)Nc1cccc2cccnc12)C(Cl)(Cl)Cl (stereo not given) [Salubrinal]
fractional viability (2uM): 0.896
fractional viability (10uM): 0.834

CC(=O)O[C@@]12CO[C@@H]1C[C@H](O)[C@@]1(C)C(=O)[C@H](O)C3=C(C)[C@@H](OC(=O)[C@H](O)[C@@H](NC(=O)OC(C)(C)C)c4ccccc4)C[C@@](O)([C@@H](OC(=O)c4ccccc4)[C@H]21)C3(C)C [Docetaxel]
fractional viability (2uM): 0.703
fractional viability (10uM): 0.79

CCC[C@@H]1C[C@@H](C(=O)N[C@@H]([C@H]2O[C@H](SC)[C@H](O)[C@@H](O)[C@H]2O)[C@H](C)Cl)N(C)C1 [Clindamycin]
fractional viability (2uM): 0.977
fractional viability (10uM): 1.42

CCC[C@@H]1C[C@@H](C(=O)N[C@@H]([C@H]2O[C@H](SC)[C@H](O)[C@@H](O)[C@H]2O)[C@H](C)Cl)N(C)C1 [Clindamycin HCl]
fractional viability (2uM): 1.05
fractional viability (10uM): 1.24

CO[C@H]1/C=C\C=C(/C)C(=O)NC2=CC(=O)C(NCCN(C)C)=C(C[C@@H](C)C[C@H](OC)[C@H](O)[C@@H](C)/C=C(\C)[C@@H]1OC(N)=O)C2=O [17-DMAG (Alvespimycin) HCl]
fractional viability (2uM): 0.93
fractional viability (10uM): 0.744

O=C(N[C@H](CO)[C@H](O)c1ccc([N+](=O)[O-])cc1)C(Cl)Cl [Chloramphenicol]
fractional viability (2uM): 0.954
fractional viability (10uM): 1.05

O=C(O)CCNC(=O)c1ccccc1 [Betamipron]
fractional viability (2uM): 1.14
fractional viability (10uM): 0.982

C=C1/C(=C\C=C2/CCC[C@]3(C)[C@@H]([C@H](C)CCCC(C)C)CC[C@@H]23)C[C@@H](O)C[C@@H]1O [Alfacalcidol]
fractional viability (2uM): 1.19
fractional viability (10uM): 0.804

CCN(CC)CCNC(=O)c1cc(Cl)c(N)cc1OC [MetoclopraMide HCl]
fractional viability (2uM): 0.918
fractional viability (10uM): 0.992

CCOc1ccc2ccccc2c1C(=O)N[C@@H]1C(=O)N2[C@@H]1SC(C)(C)[C@@H]2C(=O)O [Nafcillin Sodium]
fractional viability (2uM): 1
fractional viability (10uM): 0.905

CC1=NN(c2ccccc2)C(=O)C1 [Edaravone]
fractional viability (2uM): 1.02
fractional viability (10uM): 0.955

COc1ccccc1Oc1c(NS(=O)(=O)c2ccc(C(C)(C)C)cc2)nc(-c2ncccn2)nc1OCCO [Bosentan]
fractional viability (2uM): 0.975
fractional viability (10uM): 0.973

COc1ccccc1Oc1c(NS(=O)(=O)c2ccc(C(C)(C)C)cc2)nc(-c2ncccn2)nc1OCCO [Bosentan Hydrate]
fractional viability (2uM): 1.07
fractional viability (10uM): 0.903

COc1cc2c(Oc3ccc(NC(=O)C4(C(=O)Nc5ccc(F)cc5)CC4)cc3F)ccnc2cc1OCCCN1CCOCC1
fractional viability (2uM): 1.05
fractional viability (10uM): 0.161

C[S+]([O-])c1ccc(-c2nc(-c3ccc(F)cc3)c(-c3ccncc3)[nH]2)cc1 (stereo not given)
fractional viability (2uM): 1.15
fractional viability (10uM): 1.31

CN1CCC[C@@H]1Cc1c[nH]c2ccc(CCS(=O)(=O)c3ccccc3)cc12 [Eletriptan HBr]
fractional viability (2uM): 0.776
fractional viability (10uM): 0.84

CC#CC(=O)N1CC[C@@H](n2c(=O)n(-c3ccc(Oc4ccccc4)cc3)c3c(N)ncnc32)C1
fractional viability (2uM): 0.767
fractional viability (10uM): 0.851

Cc1onc(-c2ccccc2Cl)c1C(=O)N[C@@H]1C(=O)N2[C@@H]1SC(C)(C)[C@@H]2C(=O)O [Cloxacillin Sodium]
fractional viability (2uM): 0.961
fractional viability (10uM): 1

C#Cc1cccc(Nc2ncnc3cc(OCCOC)c(OCCOC)cc23)c1 [Erlotinib]
fractional viability (2uM): 0.974
fractional viability (10uM): 0.882

C#Cc1cccc(Nc2ncnc3cc(OCCOC)c(OCCOC)cc23)c1 [Erlotinib HCl (OSI-744)]
fractional viability (2uM): 1.13
fractional viability (10uM): 0.84

COc1ccc(Cn2ccc3ccc(C(=O)NO)cc32)cc1
fractional viability (2uM): 0.948
fractional viability (10uM): 0.784

NS(=O)(=O)c1cc2c(cc1Cl)NC(C(Cl)Cl)NS2(=O)=O (stereo not given) [Trichlormethiazide]
fractional viability (2uM): 1.22
fractional viability (10uM): 0.862

CN[C@@H]1[C@H](O)[C@H](NC)[C@H]2O[C@@]3(O)C(=O)C[C@@H](C)O[C@H]3O[C@@H]2[C@H]1O [Spectinomycin HCl]
fractional viability (2uM): 1.15
fractional viability (10uM): 1.74

NC(=O)c1cnc(N[C@@H]2CCCC[C@@H]2N)nc1Nc1cccc(-n2nccn2)c1
fractional viability (2uM): 0.758
fractional viability (10uM): 0.23

Cc1c(-c2ccccc2)oc2c(C(=O)OCCN3CCCCC3)cccc2c1=O [Flavoxate HCl]
fractional viability (2uM): 0.939
fractional viability (10uM): 0.84

CCCCCCOC(=O)NC(=N)c1ccc(NCc2nc3cc(C(=O)N(CCC(=O)OCC)c4ccccn4)ccc3n2C)cc1 [Dabigatran Etexilate]
fractional viability (2uM): 0.92
fractional viability (10uM): 0.593

COc1ccc(O)cc1 [Mequinol]
fractional viability (2uM): 0.894
fractional viability (10uM): 0.891

CCN(CC)CCOC(=O)c1ccc(N)cc1Cl [Chloroprocaine HCl]
fractional viability (2uM): 0.906
fractional viability (10uM): 0.824

Clc1ccc(C(Cn2ccnc2)OCc2ccsc2Cl)c(Cl)c1 (stereo not given) [Tioconazole]
fractional viability (2uM): 1.07
fractional viability (10uM): 0.85

COc1cc(C(=O)N2CCC(N3CCN(C)CC3)CC2)ccc1Nc1ncc2c(n1)N(C)c1ccccc1C(=O)N2C
fractional viability (2uM): 0.767
fractional viability (10uM): 0.649

C[C@@H](Nc1cc(F)cc(F)c1)c1cc(C(=O)N(C)C)cc2c(=O)cc(N3CCOCC3)oc12
fractional viability (2uM): 0.947
fractional viability (10uM): 0.824

CCOC(=O)c1cnc2ccc(-c3cncc(NS(=O)(=O)c4ccccc4)c3)cn12
fractional viability (2uM): 0.529
fractional viability (10uM): 0.37

Cc1c(C(=O)NN2CCCCC2)nn(-c2ccc(Cl)cc2Cl)c1-c1ccc(Cl)cc1 [Rimonabant]
fractional viability (2uM): 0.929
fractional viability (10uM): 0.615

COc1cc2c(cc1OC)CC(=O)N(CCCN(C)C[C@H]1Cc3cc(OC)c(OC)cc31)CC2 [Ivabradine HCl]
fractional viability (2uM): 1.02
fractional viability (10uM): 0.967

C[C@H]1c2cccc(O)c2C(=O)C2=C(O)[C@]3(O)C(=O)C(C(N)=O)=C(O)[C@@H](N(C)C)[C@@H]3[C@@H](O)[C@@H]21 [Doxycycline Hyclate]
fractional viability (2uM): 1.45
fractional viability (10uM): 1.11

O=C(O)C(=O)O.[NH-][C@@H]1CCCC[C@H]1[NH-].[Pt+2] [Oxaliplatin]
fractional viability (2uM): 1.09
fractional viability (10uM): 0.865

CC(C)C(=O)Oc1ccc(CO)cc1[C@H](CCN(C(C)C)C(C)C)c1ccccc1 [Fesoterodine Fumarate]
fractional viability (2uM): 0.935
fractional viability (10uM): 0.864

Cc1nn(-c2ccccc2)c(C)c1C=NN1CCN(Cc2ccccc2)CC1
fractional viability (2uM): 0.946
fractional viability (10uM): 0.905

Cc1ccc(NC(=O)c2ccc(CN3CCN(C)CC3)cc2)cc1Nc1nccc(-c2cccnc2)n1 [Imatinib (STI571)]
fractional viability (2uM): 1.18
fractional viability (10uM): 1.11

Cc1ccc(NC(=O)c2ccc(CN3CCN(C)CC3)cc2)cc1Nc1nccc(-c2cccnc2)n1 [Imatinib Mesylate (STI571)]
fractional viability (2uM): 1.14
fractional viability (10uM): 0.828

O=C(NCC1(c2nc(-c3ccccc3)cs2)CCOCC1)c1cccc(-c2noc(C(F)(F)F)n2)c1
fractional viability (2uM): 0.944
fractional viability (10uM): 0.878

CCc1c2c(nc3ccc(O)cc13)-c1cc3c(c(=O)n1C2)COC(=O)[C@]3(O)CC
fractional viability (2uM): 0.217
fractional viability (10uM): 0.128

C#CCN[C@@H]1CCc2ccccc21 [Rasagiline Mesylate]
fractional viability (2uM): 0.997
fractional viability (10uM): 0.927

COc1cc(OC2CCN(C)CC2)ccc1Nc1ncc2c(n1)n(C1CCCC1)c(=O)n2C
fractional viability (2uM): 0.889
fractional viability (10uM): 0.724

COc1ccc(NS(=O)(=O)c2sc3ccc(Cl)cc3c2C)cc1N1CCNCC1
fractional viability (2uM): 0.965
fractional viability (10uM): 0.939

CCOc1nc2cccc(C(=O)OCc3oc(=O)oc3C)c2n1Cc1ccc(-c2ccccc2-c2noc(=O)[nH]2)cc1 [Azilsartan Medoxomil]
fractional viability (2uM): 1.03
fractional viability (10uM): 0.902

CCN(C(=O)c1c(O)c2c(Cl)cccc2n(C)c1=O)c1ccccc1 [Laquinimod]
fractional viability (2uM): 1.13
fractional viability (10uM): 1.1

CN1CC(=O)N2[C@H](c3ccc4c(c3)OCO4)c3[nH]c4ccccc4c3C[C@@H]2C1=O [Tadalafil]
fractional viability (2uM): 1.11
fractional viability (10uM): 1.06

CC(C)NCC(O)COc1ccc(CCOCC2CC2)cc1 (stereo not given) [Betaxolol]
fractional viability (2uM): 0.974
fractional viability (10uM): 1.12

CCc1nc(N)nc(N)c1-c1ccc(Cl)cc1 [Pyrimethamine]
fractional viability (2uM): 1.07
fractional viability (10uM): 0.632

Cc1c(C(=O)NN2CCCCC2)nn(-c2ccc(Cl)cc2Cl)c1-c1ccc(I)cc1
fractional viability (2uM): 0.982
fractional viability (10uM): 0.754

CC(C)(OCc1nn(Cc2ccccc2)c2ccccc12)C(=O)O [Bindarit]
fractional viability (2uM): 0.959
fractional viability (10uM): 0.766

CCCN1CCCC[C@H]1C(=O)Nc1c(C)cccc1C [Ropivacaine HCl]
fractional viability (2uM): 0.883
fractional viability (10uM): 0.94

CC(NC(=O)c1ccccc1/N=C/c1c(O)ccc2ccccc12)c1ccccc1 (stereo not given) [Sirtinol]
fractional viability (2uM): 0.895
fractional viability (10uM): 0.987

Cc1cccc(-c2[nH]c(C(C)(C)C)nc2-c2ccc3c(c2)OCO3)n1
fractional viability (2uM): 1.2
fractional viability (10uM): 0.682

CNCc1ccc(-c2cc(-c3nc(-c4ccc(S(=O)(=O)C(C)C)cc4)cnc3N)on2)cc1
fractional viability (2uM): 0.792
fractional viability (10uM): 0.849

CN1CCN(CCCN2c3ccccc3Sc3ccc(C(F)(F)F)cc32)CC1 [Trifluoperazine 2HCl]
fractional viability (2uM): 1.08
fractional viability (10uM): 0.81

CC(S)C(=O)NCC(=O)O (stereo not given) [Tiopronin]
fractional viability (2uM): 0.996
fractional viability (10uM): 1.07

O=C(NCc1ccccc1)c1csc(Nc2ccncn2)n1 [Thiazovivin]
fractional viability (2uM): 1.09
fractional viability (10uM): 1.14

CNC[C@H](O)c1ccc(O)c(O)c1 [Epinephrine Bitartrate]
fractional viability (2uM): 0.973
fractional viability (10uM): 0.749

CNC[C@H](O)c1ccc(O)c(O)c1 [Epinephrine HCl]
fractional viability (2uM): 0.934
fractional viability (10uM): 0.637

CN(CC(=O)N(Cc1ccc(C2CCCCC2)cc1)c1ccc(C(=O)O)cc1)S(=O)(=O)c1c(F)c(F)c(F)c(F)c1F
fractional viability (2uM): 0.662
fractional viability (10uM): 0.0586
